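48-hour exposure; five concentrations; linearly interpolated endpoints. GI50 is the concentration that inhibits growth by half.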 Activity calls are given as the source filed them. Cut-off read from the data, not from the text of the source: active = GI50 up to about 1.1 µM and inactive = higher.
These compounds were tested on NCI-H322M (assay: DTP human tumour cell line panel, 48 h).

| SMILES | GI50 |
| --- | --- |
| COc1cc2cc3c4cc(OC)c(OC)cc4cc[n+]3c(C)c2cc1OC [CORALYNE] | inactive: > 100 µM |
| N=C(N)NS(=O)(=O)c1ccc(NNc2c3ccccc3nc3c(C(=O)Nc4ccc(S(N)(=O)=O)cc4)cccc23)cc1 | inactive: 32.4 µM |
| C=C(Cl)/C(=C/Cl)CCC(Br)C(C)(C)Cl.C=C(Cl)/C(=C\Cl)CCC(Br)C(C)(C)Cl (stereo unspecified) | inactive: > 10 µM |
| C=C(C)C(=O)OC1CCC2(C)C(CCC3C2CCC2(C)C(c4ccc(=O)oc4)CC4OC432)C1 (stereo unspecified) | inactive: 7.35 µM |
| [O-][S+](C(c1ccccc1)=P(c1ccccc1)(c1ccccc1)c1ccccc1)c1ccc(Cl)cc1 (stereo unspecified) | inactive: 36.2 µM |
| NNC(=O)CC(=O)Nc1ccccc1F | inactive: > 100 µM |
| CN(C)CCCn1c2c3ccccc3ccc2c2oc(=O)c3ccccc3c21 | inactive: 6.7 µM |
| CC(C)(C)CNC(=O)NCn1cc(-c2ccccc2)nn1 | inactive: > 100 µM |
| CCN(CC)C(=O)c1c(Cl)cc(N(CC)CC)oc1=O | inactive: > 100 µM |
| O=c1c2cc([N+](=O)[O-])ccc2[nH]n1Cc1ccccn1 | inactive: > 100 µM |
| Fc1c(F)c(F)c(CSc2nc3ccccc3[nH]2)c(F)c1F | inactive: > 100 µM |
| COc1ccc(OC)c(NC(=O)C(=O)C(C(=O)c2ccccc2F)C2OC(=O)c3ccccc32)c1 (stereo unspecified) | inactive: 30.6 µM |
| CC1(C)C=C(/C=N/Nc2ccc(Br)cc2)C(C#N)=C(O)C1(C#N)C#N | inactive: 58.2 µM |
| CN(Cc1ccccc1)Cn1ccnc1 | inactive: > 100 µM |
| CC(C)(C)c1cc(-c2c3nc(c(-c4cc(C(C)(C)C)cc(C(C)(C)C)c4)c4ccc([nH]4)c(-c4cc(C(C)(C)C)cc(C(C)(C)C)c4)c4nc(c(-c5cc(C(C)(C)C)cc(C(C)(C)C)c5)c5ccc2[nH]5)C=C4)C=C3)cc(C(C)(C)C)c1 | inactive: > 100 µM |
| CCOc1ccc(C2Oc3c(cccc3OC)C=C2[N+](=O)[O-])cc1OCC (stereo unspecified) | inactive: 14.3 µM |
| CC[C@@H]1/C=C/C=C/C[C@H](C)[C@@H](O)[C@](C)(O)C(=O)[C@H](C)[C@@H](O)[C@H](C)C(=O)[C@H](C)[C@@H](O)[C@H](C)/C=C/C(=O)O[C@H]2[C@@H](C)[C@@H](CC1)O[C@@]1(CC[C@@H](C)[C@@H](CC(C)O)O1)[C@@H]2C (stereo partly specified) | inactive: 3.73 µM |
| O=C(O)c1c[nH]c2c(Sc3ccccc3)nccc2c1=O | inactive: 96.6 µM |
| CC(NC1=NCCO1)c1ccsc1 (stereo unspecified) | inactive: 37.5 µM |
| C=CCONC(=O)c1ccc(Cl)cc1 | inactive: > 100 µM |
| CSC(C1c2ccccc2N(C)c2[nH]c(=O)n(C)c(=O)c21)S(=O)(=O)c1ccc(C)cc1 (stereo unspecified) | inactive: 54.1 µM |
| COC(=O)C1CC(C=O)=C(SC)N1 (stereo unspecified) | inactive: > 50 µM |
| CCC(NC(C)c1ccccc1)C(=O)c1ccc(OCc2ccccc2)c(OCc2ccccc2)c1 (stereo unspecified) | inactive: > 100 µM |

| SMILES | GI50 |
| --- | --- |
| CNc1ccc([N+](=O)[O-])c2c(NCCCN(C)C)ccnc12 | inactive: > 100 µM |
| CC(=O)SC(C[N+](=O)[O-])c1ccc2c(c1)OCO2 (stereo unspecified) | inactive: 16.5 µM |
| CC(=O)NS(=O)(=O)c1ccc(NC(=O)COC(=O)c2cccc3c(=O)c4ccccc4[nH]c23)cc1 | inactive: > 100 µM |
| c1ccc(-c2nnc(-c3nsc4ccccc34)o2)cc1 | inactive: > 100 µM |
| CN(OC(=O)CC(=O)c1ccccc1)C(=O)Cc1ccccc1 | inactive: > 100 µM |
| CCC(C#N)N(Cc1cccc(CN(C(C)=O)C(C#N)CC)c1)C(C)=O (stereo unspecified) | inactive: > 100 µM |
| CSc1nc2c(N)ncnc2n1C | inactive: > 100 µM |
| COC(=O)c1c(C#N)[nH]c(-c2ccsc2)c1C(=O)OC | inactive: > 100 µM |
| CC1(c2ccc(F)cc2)C(C#N)C(=O)NC(=O)C1C#N (stereo unspecified) | inactive: > 100 µM |
| CP(=O)(CCSc1ccccc1)c1ccccc1 (stereo unspecified) | inactive: > 100 µM |
| CN1C(=O)[C@H](c2c[nH]c3ccccc23)[C@H](c2c[nH]c3ccccc23)C1=O | inactive: 45.5 µM |
| COc1cc(C[C@H]2C(=O)OC[C@@H]2Cc2ccc(OC)c(OC)c2)cc(OC)c1 | inactive: > 100 µM |
| O=[N+]([O-])c1ccc(OCc2nnc(CCCCCCCCc3nnc(COc4ccc([N+](=O)[O-])cc4)o3)o2)cc1 | inactive: > 100 µM |
| NCCNCC(O)CO (stereo unspecified) | inactive: > 100 µM |
| CC(C)(C)C(=O)OCC1C(=O)OCC1C(=O)N1Cc2cc3ccccc3nc2C1 (stereo unspecified) | inactive: 17.8 µM |
| COC(=O)C(=O)C(C#N)c1c(Cl)cccc1Cl (stereo unspecified) | inactive: > 100 µM |
| CC(=O)OC1CCn2nnc(CO)c21 (stereo unspecified) | inactive: > 100 µM |
| CC(=O)c1nc2ccccc2n1CC(=O)c1ccc(Cl)cc1 | inactive: 11.2 µM |
| NC(=S)NS(=O)(=O)c1ccc(F)cc1F | inactive: > 100 µM |
| CCCCC/N=C/c1c(O)c(O)c(C(C)C)c2cc(C)c(-c3c(C)cc4c(C(C)C)c(O)c(O)c(/C=N/CCCCC)c4c3O)c(O)c12 | inactive: 82.6 µM |
| [O-][S+]1CSSC1 | inactive: 25.6 µM |
| Cc1c(Cl)cccc1NC(=O)c1cccc([N+](=O)[O-])c1O | inactive: 20.6 µM |
| CC(=O)OCC1OC(n2ccc(=O)[nH]c2=O)C(OC(C)=O)C(OC(C)=O)C1OC(C)=O (stereo unspecified) | inactive: > 100 µM |
